# Laboratory results taken from publication PMC4336329 (PLoS ONE, 2015).
# Among all 310,000 compounds or so, about 14,000 (4.5%) showed an effect of 50% or more. Effects have a minus sign here. This is one part of the list.
# Target: human ether-à-go-go-related gene (hERG) potassium channel (human, UniProt Q12809)
# Test: primary screen, population patch clamp on CHO cells stably expressing hERG
# 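Further: peak tail current of the secondary pulse compared with the same well before compound.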
# Sequence of human ether-à-go-go-related gene (hERG) potassium channel (Q12809 whole entry, looked up): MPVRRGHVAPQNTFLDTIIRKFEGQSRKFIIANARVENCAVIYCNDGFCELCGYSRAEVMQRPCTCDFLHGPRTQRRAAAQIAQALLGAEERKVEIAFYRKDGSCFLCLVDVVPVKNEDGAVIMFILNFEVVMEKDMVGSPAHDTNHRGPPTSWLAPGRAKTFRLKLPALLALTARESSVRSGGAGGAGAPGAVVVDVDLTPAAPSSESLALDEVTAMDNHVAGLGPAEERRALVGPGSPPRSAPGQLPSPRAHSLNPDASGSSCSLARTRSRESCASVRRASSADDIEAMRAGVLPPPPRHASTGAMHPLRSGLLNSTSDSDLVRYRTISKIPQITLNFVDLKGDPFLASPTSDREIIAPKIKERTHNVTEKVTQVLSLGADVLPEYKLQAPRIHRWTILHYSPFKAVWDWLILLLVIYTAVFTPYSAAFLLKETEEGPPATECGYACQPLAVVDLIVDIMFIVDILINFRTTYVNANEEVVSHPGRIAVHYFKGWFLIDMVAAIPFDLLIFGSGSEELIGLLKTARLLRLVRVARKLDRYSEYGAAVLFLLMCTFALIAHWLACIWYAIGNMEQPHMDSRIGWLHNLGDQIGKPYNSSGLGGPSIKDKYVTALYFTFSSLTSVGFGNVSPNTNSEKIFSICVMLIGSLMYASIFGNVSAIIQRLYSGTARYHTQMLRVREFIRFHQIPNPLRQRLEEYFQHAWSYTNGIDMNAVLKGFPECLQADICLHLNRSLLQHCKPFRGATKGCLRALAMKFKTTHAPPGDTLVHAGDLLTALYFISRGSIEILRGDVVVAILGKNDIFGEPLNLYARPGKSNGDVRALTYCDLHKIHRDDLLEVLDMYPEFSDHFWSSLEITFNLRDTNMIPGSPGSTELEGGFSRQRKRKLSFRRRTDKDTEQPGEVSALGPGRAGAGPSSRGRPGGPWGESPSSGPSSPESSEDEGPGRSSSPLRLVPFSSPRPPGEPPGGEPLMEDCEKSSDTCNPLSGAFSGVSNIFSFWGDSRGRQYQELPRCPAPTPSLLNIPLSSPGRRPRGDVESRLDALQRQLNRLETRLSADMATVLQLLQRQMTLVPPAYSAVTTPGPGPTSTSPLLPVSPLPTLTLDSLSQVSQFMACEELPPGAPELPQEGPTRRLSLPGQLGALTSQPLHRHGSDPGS
row,Structure (SMILES),"hERG current change (%, negative = inhibition) at 10uM [%]"
1,O=C1CSc2nc3ccccc3n21,4.86
2,COc1ccc(C)cc1NCc1cccc(OC)c1OC,1.13
3,COc1ccc(N2CCN(CC(O)COCc3ccccc3)CC2)cc1.Cl (centres unmarked),-25.2
4,COC(=O)C1=C(C(=O)OC)[C@@H]2N(Cc3ccccc3)c3ccccc3[C@@]23C[C@@H](C(=O)OC)N(C(=O)c2cc(C)oc2C)C3=N1,-6.19
5,Cc1cccc(C)c1NC(=O)C1(C)c2cccc[n+]2CC(=O)N1Cc1cccs1.[I-] (centres unmarked),6.18
6,CC1CC1C(=O)OCC(=O)Nc1ncc(Cl)cc1Cl (centres unmarked),-4.57
7,COc1ccc(-c2c(-c3cc(OC)cc(OC)c3)n(C)c3ccc(-c4ccc(N(C)C)nc4)cc23)cc1,-1.26
8,CCOC(=O)c1c(-c2cccs2)csc1NC(=O)CN(CC)CC,10
9,Cc1ccc(S(=O)(=O)N(C)CC(=O)O/N=C(\N)c2cccc(Br)c2)cc1,13.5
10,CC1CC(c2ccccc2)n2nc(NC(=O)c3ccco3)nc2N1 (centres unmarked),24.6
11,COc1cccc(C(=O)Nc2cc(C(=O)NCc3ccc(C)cc3)ccc2N2CCC3(CC2)CC(c2cccc(Br)c2)=NO3)c1,10.9
12,C/C(O)=C(\C#N)P(=O)(c1ccccc1)c1ccccc1,11.6
13,Cc1ccc(NC(=O)CN2C(=O)S/C(=C\C(=O)Nc3ccc(Cl)cc3)C2=O)cc1,11.1
14,Cc1cc(C)c(C)c(OCC(=O)N2CCCCCC2)c1,-4.74
15,Cc1ccc(C(=O)c2oc3nc(C)cc(C)c3c2N)cc1,2.55
16,Cc1c(C#N)c2ccccc2n1CC(=O)NCc1cccnc1,-6.24
17,CCOC(=O)CC(=O)CSc1n[nH]c(=O)[nH]c1=O,15.1
18,CC1CCc2cc(F)ccc2N1C(=O)CSc1nnc2c3cc(F)ccc3n(C)c2n1 (centres unmarked),5.53
19,Cc1cccc(/C=C2/Sc3ccc(C(=O)N4CCOCC4)cc3NC2=O)c1,-6.21
20,CN1CCN(c2ccc([N+](=O)[O-])cc2S(=O)(=O)N2CCOCC2)CC1,-16.6
21,Cc1ccccc1-n1c(SCC(=O)N2CCN(c3ccccn3)CC2)nnc1N1CCOCC1,-17.6
22,O=C(CSc1nc2ccc(NC(=O)CSc3nnnn3-c3ccccc3)cc2s1)Nc1ccccc1,0.337

row,Structure (SMILES),"hERG current change (%, negative = inhibition) at 10uM [%]"
1,CCN(c1ccccc1)S(=O)(=O)c1ccc(F)c(C(=O)O)c1,-24.7
2,Cc1cc(C)c(C)c(S(=O)(=O)N2CCC(C(=O)NNC(=O)c3ccccc3O)CC2)c1C,8.88
3,COc1ccc(CNCC(O)COc2cccc3c2OC(C)(C)C3)cc1.Cl (centres unmarked),-60.5
4,CCOC(=O)Cn1c(CN2CCOCC2)nc2c1c(=O)n(C)c(=O)n2C,5.62
5,O=C(CCNS(=O)(=O)/C=C/c1ccccc1)NCCc1c[nH]c2ccccc12,3.88
6,COc1cc(C(=O)NCCC(=O)N2CCN(C)CC2)cc(OC)c1OC,10
7,Cc1ccc(-c2cc(C(=O)NC3CCCC3)no2)cc1,16.6
8,COc1ccc(C2SCC(=O)N2Cc2ccccc2)cc1 (centres unmarked),-0.516
9,Fc1ccc(Oc2cnns2)cc1,14.3
10,Cc1cccc2nc(Cn3c(=O)n(CCCC(=O)NCc4ccco4)c(=O)c4ccccc43)cc(=O)n12,-23
11,COc1cccc(-c2csc(/C(C#N)=C/Nc3cc4oc5ccccc5c4cc3OC)n2)c1,12.8
12,NC(=O)c1cnn(Cc2ccc(Cl)cc2)c1N,3.73
13,Cc1c(Cl)cccc1NC(=O)c1nc(C)n(-c2cc(OC(C)C)c(Cl)cc2Cl)n1,21.6
14,COc1ccccc1C(=O)NCC(=O)N/N=C/c1cn[nH]c1-c1ccccc1,-2.63
15,COc1ccc(CCNC(=O)CCc2nnc(Cc3ccc4c(c3)OCO4)o2)c(OC)c1,-3.93
16,Cc1ccccc1C(=O)Nc1nnc(S(=O)(=O)N(C)Cc2ccco2)s1,6.88
17,CCCCc1ccc(Nc2ncnc3nc[nH]c23)cc1,-5.61
18,O=C(O)C1CCCCC1C(=O)N1CCN(S(=O)(=O)c2ccc(F)cc2)CC1 (centres unmarked),8.47
19,COc1ccc(/C=N/NC(=O)c2ccc(NC(=O)c3cccc([N+](=O)[O-])c3)cc2)c(OC)c1,3.23
20,COc1ccc(C)cc1Nc1n[n+](-c2ccccc2)c(-c2cc(OC)c(OC)cc2Br)s1.[Cl-],-48.9
21,COc1ccc(NC(=O)CSc2nncc(=O)n2N)cc1OC,15.5
22,O=C(CSC1=NS(=O)(=O)c2cc(Cl)ccc2N1)Nc1ccccc1F,5.03
